Experimental data published in PMC4336329 (PLoS ONE, 2015).
Hit rate of the full screen: of about 310,000 compounds, about 2,200 (0.71%) showed an effect of 50% or more. The effect is printed as a negative number. The list shows a part of the results.

biological target: human ether-à-go-go-related gene (hERG) potassium channel (human, UniProt Q12809); assay: primary screen, population patch clamp on CHO cells stably expressing hERG
Sequence (Q12809 whole entry, looked up): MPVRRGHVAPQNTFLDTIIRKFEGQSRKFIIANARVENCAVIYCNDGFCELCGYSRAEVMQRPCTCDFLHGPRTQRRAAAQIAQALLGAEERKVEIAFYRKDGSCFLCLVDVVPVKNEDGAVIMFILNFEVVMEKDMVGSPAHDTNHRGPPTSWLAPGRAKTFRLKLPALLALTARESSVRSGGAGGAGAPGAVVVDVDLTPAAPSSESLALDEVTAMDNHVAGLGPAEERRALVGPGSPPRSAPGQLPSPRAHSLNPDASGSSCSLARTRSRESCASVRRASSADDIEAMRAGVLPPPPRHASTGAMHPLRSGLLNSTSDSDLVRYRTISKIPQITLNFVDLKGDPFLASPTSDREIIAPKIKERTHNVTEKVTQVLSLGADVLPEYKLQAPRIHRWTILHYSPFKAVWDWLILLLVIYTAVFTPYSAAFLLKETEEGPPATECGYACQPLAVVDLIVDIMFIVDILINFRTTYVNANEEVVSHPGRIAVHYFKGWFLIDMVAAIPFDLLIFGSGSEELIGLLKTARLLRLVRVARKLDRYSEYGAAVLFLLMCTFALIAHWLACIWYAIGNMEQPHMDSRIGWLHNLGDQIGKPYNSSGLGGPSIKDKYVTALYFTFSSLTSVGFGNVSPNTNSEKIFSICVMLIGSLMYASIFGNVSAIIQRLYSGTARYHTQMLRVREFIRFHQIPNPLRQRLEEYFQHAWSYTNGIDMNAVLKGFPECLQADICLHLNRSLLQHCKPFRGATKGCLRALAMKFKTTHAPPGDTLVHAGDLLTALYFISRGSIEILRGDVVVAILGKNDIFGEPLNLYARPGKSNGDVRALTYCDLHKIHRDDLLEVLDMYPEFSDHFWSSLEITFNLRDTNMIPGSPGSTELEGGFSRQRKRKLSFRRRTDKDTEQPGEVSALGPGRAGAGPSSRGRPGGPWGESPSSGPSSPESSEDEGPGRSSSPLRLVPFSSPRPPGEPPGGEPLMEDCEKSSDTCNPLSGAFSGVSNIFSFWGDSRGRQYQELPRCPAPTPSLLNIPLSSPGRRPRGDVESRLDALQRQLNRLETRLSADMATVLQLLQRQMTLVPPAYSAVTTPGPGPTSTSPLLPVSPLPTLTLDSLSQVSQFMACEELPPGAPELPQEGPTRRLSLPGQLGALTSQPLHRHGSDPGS

| SMILES | hERG current change (%, negative = inhibition) at 1uM [%] |
| --- | --- |
| Cc1ccc(S(=O)(=O)N2CCOCC2)s1 | 14.8 |
| CN1CCN(C(=O)/C=C/c2ccccc2)CC1 | 13.5 |
| COc1cc(C=C(c2nc3ccccc3s2)c2nc3ccccc3s2)ccc1O | 12.1 |
| CC(=O)c1cnc2c(-c3ccccc3)c(C(F)(F)F)nn2c1C | 11.3 |
| O=S(=O)(c1cccs1)N1CCN(c2ccccc2Cl)CC1 | 15.1 |
| COc1ccc(NC(=O)CSc2nc3c(c(-c4cccs4)c2C#N)CN(C)CC3)cc1OC | 8.17 |
| O=C(COC(=O)Cc1ccc(S(=O)(=O)N2CCOCC2)s1)NCc1ccccc1 | -0.496 |
| COc1ccccc1NC(=O)c1ccc(NC2=NC3CS(=O)(=O)CC3S2)cc1 (stereo not drawn) | 16.1 |
| CCN(CC)S(=O)(=O)c1cc(C(=O)Nc2nncs2)c(Cl)cc1Cl | -13.4 |
| Cc1cc(=O)oc2c3c(cc(OCC(=O)N4CCC[C@H]4C(=O)O)c12)OC(C)(C)CC3 | 4.57 |
| COc1ccc(-c2nnn(CC(=O)N(CCCN3CCOCC3)C(C(=O)NC3CCCC3)c3ccco3)n2)cc1 (stereo not drawn) | -7.27 |
| COc1ccc(N2CCN(C(=O)c3ccc(CS(=O)(=O)c4ccccc4C)o3)CC2)cc1 | 0.393 |
| COc1ccc(Nc2nc(N)nc(CN3CCC(Cc4ccccc4)CC3)n2)cc1 | -81 |
| CCOc1ccc(S(=O)(=O)NCc2ccncc2)cc1NC(=O)c1ccccc1F | 26.6 |
| Cc1ccc(OCCCC(=O)Nc2ccc3c(c2)OCO3)cc1 | 11.8 |
| O=C(NNC(=O)c1cc2ccccc2cc1O)Nc1ccccc1F | 4.12 |
| O=C1CN(C(=O)COC(=O)c2ccccc2O)c2ccccc2N1 | 10.8 |
| CCN(CC)C(=O)CCCSc1nnc(Nc2ccccc2F)s1 | 3.49 |
| CCOC(=O)c1cc(CC)sc1NC(=O)c1cc(OCC)c(OCC)c(OCC)c1 | 11.7 |
| COc1ccc(S(=O)(=O)NCC2CCC(C(=O)NCCC(C)C)CC2)cc1 (stereo not drawn) | 6.95 |
| COc1ccc(-n2c(SC3CCOC3=O)nc3ccccc3c2=O)cc1Cl (stereo not drawn) | 7.9 |

| SMILES | hERG current change (%, negative = inhibition) at 1uM [%] |
| --- | --- |
| Cc1cc(C)nc(SCc2nnc(SCC(N)=O)n2Cc2ccco2)n1 | -3.7 |
| Cc1ccc(S(=O)(=O)NN2C(=O)/C(=C/c3ccc(F)cc3)SC2=S)cc1 | 10.5 |
| O=C(CN1CCN(Cc2ccccc2)CC1)N/N=C/c1ccco1 | 6.75 |
| O=C(COC(=O)CN=C1NS(=O)(=O)c2ccccc21)Nc1ccccc1OC(F)F | 4.87 |
| COc1c(C)c2c(c(O)c1C/C=C(\C)CCC(=O)O)C(=O)OC2 | 13.6 |
| COc1ccc(-c2cc(C(=O)NCCc3ccccc3)no2)cc1OC | 8.51 |
| Cc1ccc(C2=NOC(C)(c3nnc(Cc4ccccc4)o3)C2)cc1 (stereo not drawn) | 6.43 |
| O=[N+]([O-])c1ccc(-n2cc(-c3ccccc3)nn2)cc1 | 0.495 |
| CC(C)N1C(=O)C2C(C(=O)NC3CCCCC3)C3C=CC2(O3)C1C(=O)NC1CCCCC1 (stereo not drawn) | 6.69 |
| CC(C)c1cc(CN2CCN(Cc3ccc(F)c(F)c3)C(CCO)C2)[nH]n1 (stereo not drawn) | -3.17 |
| CCCCCCC(=O)N=Nc1c(O)[nH]c2ccc([N+](=O)[O-])cc12 | 8.81 |
| OC(COC(c1ccccc1)c1ccccc1)CN1CCCCC1 (stereo not drawn) | -18.5 |
| O=C(NN1CCOCC1)c1ccc(Cl)cc1Cl | 5.91 |
| COc1cccc(C2=NO[C@@H]3C(=O)N(Cc4ccccc4)C(=O)[C@H]23)c1OC | -1.01 |
| Cc1c(-c2ccc(Br)cc2)nc2ccccn12 | 2.27 |
| COc1ccc(-c2cn3cc(C(F)(F)F)cc(Cl)c3n2)cc1 | 10.9 |
| COc1ccc(C(=O)N/C(=C/c2cccc3ccccc23)C(=O)NCCc2c[nH]c3ccccc23)cc1OC | 9 |
| COc1ccc(O)c(/C=N/NC(=O)c2cc(=O)[nH]c3ccccc23)c1 | -5.85 |
| Cc1ccc(S(=O)(=O)NCCC(=O)N2CCN(S(=O)(=O)c3cccc(F)c3)CC2)cc1C | 7.24 |
| COCC(=O)N(Cc1cc2ccc(C)c(C)c2n2nnnc12)C1CCCC1 | 8.1 |
| CCn1cnc2c1c(=O)n(Cc1cccc(Br)c1)c(=O)n2Cc1ccccc1 | 17.4 |

| SMILES | hERG current change (%, negative = inhibition) at 1uM [%] |
| --- | --- |
| COc1ccccc1-c1cc(C(F)(F)F)nc(S(=O)(=O)CCCC(=O)N2CCOCC2)n1 | 8.58 |
| CC(=O)Nc1ccc(OCC(O)CN2CCN(c3ccccc3Cl)CC2)cc1 (stereo not drawn) | -9.46 |
| Cc1ccc(CSC2=Nc3ccccc3C3=NC(CC(=O)NCc4ccco4)C(=O)N23)cc1 (stereo not drawn) | -11.1 |
| COc1ccc(-c2cn(CCC(=O)NCc3ccc(C)cc3)c(CCN)n2)cc1 | 9.66 |
| CC1CCN(C(=O)C2CCN(C(=O)c3cc4sccc4n3Cc3ccc(F)cc3)CC2)CC1 | 1.95 |
| Cc1cc(NC(=O)CSc2nnc3ccc(-c4ccc(F)cc4)nn23)no1 | 20.1 |
| CCCS(=O)(=O)N1CCCC(C(=O)N2CCN(c3ccccc3)CC2)C1 (stereo not drawn) | 0.664 |
| CC1CN(C(=O)CCNC(=O)c2ccc(Br)cc2)CC(C)O1 (stereo not drawn) | 5.99 |
| O=[N+]([O-])c1ccc2nc(-c3ccccc3)n(OCc3ccc(Cl)cc3)c2c1 | 6 |
| CC1(c2ccccc2)NC(=O)N(NC(=O)CSc2n[nH]c(N)n2)C1=O (stereo not drawn) | 17.5 |
| CCCNC(=S)NC1CCCC1 | -2.81 |
| O=C(NCc1ccccc1)C(c1ccc(F)cc1)N(C(=O)c1csnn1)c1ccccc1 (stereo not drawn) | 12.6 |
| CCc1cccc(C)c1NC(=S)N(CCOC)C(C)c1ccco1 (stereo not drawn) | 1.59 |
| CCCCN(Cc1ccco1)S(=O)(=O)c1csc(C(N)=O)c1 | 8.2 |
| COc1ccc(C(CC(=O)O)NC(C)=O)cc1OC (stereo not drawn) | 14.2 |
| COc1cc(/C=C2/S/C(=N/S(=O)(=O)Cc3ccccc3)NC2=O)c([N+](=O)[O-])cc1OC | 10.2 |
| O=C(NC1CCS(=O)(=O)C1)/C(=C\c1ccccc1)NC(=O)c1ccccc1 (stereo not drawn) | -1.24 |
| COc1ccc(CC(=O)Nc2ccc(S(=O)(=O)N(C)C3CCN(C)CC3)cc2)cc1 | 8.16 |
| Clc1cc2c(nn1)Nc1ccccc1S2 | 2.75 |
| COc1ccc(Nc2nc3cc(C)ccc3cc2C#N)c(OC)c1 | 5.11 |
| CC1=CC(C)(C)N(C(=O)CN2C(=O)c3ccccc3C2=O)c2ccc(C)cc21 | 2.65 |

| SMILES | hERG current change (%, negative = inhibition) at 1uM [%] |
| --- | --- |
| Nc1nc2n(n1)C(c1ccco1)CC(c1ccc(Cl)c(Cl)c1)N2 (stereo not drawn) | -2.99 |
| COC(=O)c1ccc2c(=O)n(Cc3ccc(C(=O)NCCCN4CCOCC4)cc3)c(=S)[nH]c2c1 | 14.5 |
| Cc1cccc(OCC(=O)N2CCN(Cc3ccc([N+](=O)[O-])cc3)CC2)c1.O=C(O)C(=O)O | -60.5 |
| Cn1cccc1C(=O)NC(=O)COC(=O)c1cc([N+](=O)[O-])ccc1Cl | 2.77 |
| CCOCCCNc1nc(C)nc2c1nnn2Cc1c(F)cccc1Cl | 7.54 |
| COc1ccc(C(=O)Nc2ccccc2-c2nnn(CC(=O)Nc3ccc4c(c3)OCCO4)n2)cc1 | 0.96 |
| COc1ccc(/C=C/C(=O)Nc2c(C)nn(C)c2C)cc1COc1ccc(Br)cc1 | 14.9 |
| COc1ccc(C(CNC(=O)c2ccc(-c3nc4ccccc4s3)o2)N2CCCC2)cc1 (stereo not drawn) | 5.84 |
| COc1ccc(C(NCC(=O)Nc2c(C)cccc2C)c2ccccc2)cc1.O=C(O)C(=O)O (stereo not drawn) | 9.2 |
| Cc1noc(C)c1COc1ccc(C(=O)OCC(=O)Nc2ccc(C(=O)N(C)C)cc2)cc1 | 15.9 |
| O=C(NCc1ccccc1)C1CCCN(S(=O)(=O)c2cccc3nsnc23)C1 (stereo not drawn) | 8.4 |
| O=C(CSc1ncccc1-c1nc2ccccc2[nH]1)N1CCN(c2ccccc2F)CC1 | -2.69 |
| COc1ccccc1N(CC(O)Cn1nc(C)cc1C)S(=O)(=O)c1ccccc1 (stereo not drawn) | 12.2 |
| COc1cc(CNC(=O)c2ccc3c(c2)S(=O)(=O)c2ccccc2C3=O)cc(OC)c1 | 7.13 |
| O=C(Nc1ccccc1Cl)N1CCN(C/C=C/c2ccccc2)CC1 | 2.56 |
| Cc1ccc(/C=C(\NC(=O)c2ccccc2)C(=O)NC2CCN(Cc3ccccc3)CC2)o1 | -33.6 |
| CC(=O)c1cccc(NC(=S)NCCc2ccc(Cl)cc2)c1 | 6.05 |
| Cn1cc(S(=O)(=O)NCc2ccc3c(c2)OCO3)c(C(F)(F)F)n1 | -1.4 |
| CN1CCC(=O)N(CCSc2ccccc2)CC1 | 0.897 |
| CC(C)Oc1ccc(CNS(=O)(=O)c2csc(C(N)=O)c2)cc1 | 1.93 |
| CC1CCN(S(=O)(=O)c2ccc3c(c2)N(CC(=O)NCCCOC(C)C)C(=O)CO3)CC1 | 20.9 |
